Source: the supplement of paper PMC10037445
Over roughly 2,900 compounds, “NF-kB SEAP reporter activity, fold change vs agonist alone” has its median near 0.99; the highest 2% begin near 2.6. Some of the results follow.

What was measured:
RAW-Dual [1] = experiment: NF-kB SEAP reporter activity, fold change vs agonist alone; cytotoxicity flag (confluency mask): not cytotoxic; higher = enhanced NF-kB activity
Procedure, shortened: (§1)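 Supernatant from RAW-Dual macrophages was read after 20 hours for IRF by QuantiLuc luminescence and for NF-κB by QuantiBlue absorbance at 620 nm. The cells (50,000 cells/well in DMEM, 384-well plates, 37 °C, 5% CO2) had received 50 nL of library stock by pin tool and, 1 h later, a PRR agonist. Reporter activity is expressed relative to agonist-alone wells as fold change, and wells were flagged cytotoxic if IncuCyte confluency was under 70% of agonist controls in both mask sets.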

RAW-Dual [2] = experiment: NF-kB SEAP reporter activity, fold change vs agonist alone; higher = enhanced NF-kB activity; settings: library stock concentration (final ~1000-fold dilution): 10 mM
Procedure, shortened: as §1

RAW-Dual [3] = experiment: NF-kB SEAP reporter activity, fold change vs agonist alone; cytotoxicity flag (confluency mask): cytotoxic (confluency <70% of control); higher = enhanced NF-kB activity
Procedure, shortened: as §1

[4] = agonist: ODN 1826 (TLR9) 0.5 ug/mL
[5] = agonist: Pam2CSK4 (TLR2/6) 0.1 ug/mL
[6] = agonist: Pam3CSK4 (TLR2/1) 0.1 ug/mL
[7] = cytotoxicity flag (confluency mask): not cytotoxic, agonist: Imiquimod (TLR7) […]
[8] = cytotoxicity flag (confluency mask): not cytotoxic, agonist: MPLA (TLR4) […]
[9] = cytotoxicity flag (confluency mask): cytotoxic (confluency <70% of control), agonist: Imiquimod (TLR7) […]
[10] = cytotoxicity flag (confluency mask): cytotoxic (confluency <70% of control), agonist: MPLA (TLR4) […]

Structure (SMILES): COc1cc(OC)c(OC)cc1C=O (library stock concentration (final ~1000-fold dilution): 10 mM)
- NF-kB SEAP reporter activity (RAW-Dual [1]; agonist: LPS (TLR4) 0.1 ug/mL): 0.937
- NF-kB SEAP reporter activity (RAW-Dual [1]; [4]): 0.964
- NF-kB SEAP reporter activity (RAW-Dual [1]; [5]): 1.14
- NF-kB SEAP reporter activity (RAW-Dual [1]; [6]): 1.01

Structure (SMILES): Cc1sc2c(c1C)C(c1ccc(Cl)cc1)=NC(CC(N)=O)c1nnc(C)n1-2 (stereo not drawn) (library stock concentration (final ~1000-fold dilution): 10 mM)
- NF-kB SEAP reporter activity (RAW-Dual [1]; agonist: LPS (TLR4) 0.1 ug/mL): 2.51
- NF-kB SEAP reporter activity (RAW-Dual [1]; [4]): 1.97
- NF-kB SEAP reporter activity (RAW-Dual [1]; [5]): 0.734
- NF-kB SEAP reporter activity (RAW-Dual [1]; [6]): 1.69

Structure (SMILES): Cc1sc2c(c1C)C(c1ccc(Cl)cc1)=NC(CC(N)=O)c1nnc(C)n1-2 (stereo not drawn)
- NF-kB SEAP reporter activity (RAW-Dual [2]; [7]): 1.43
- NF-kB SEAP reporter activity (RAW-Dual [2]; [8]): 2.38

Structure (SMILES): O=C(CC1NCCCC1O)Cn1cnc2cc(Br)c(Cl)cc2c1=O (stereo not drawn) (library stock concentration (final ~1000-fold dilution): 10 mM)
- NF-kB SEAP reporter activity (RAW-Dual [3]; agonist: LPS (TLR4) 0.1 ug/mL): 0.367
- NF-kB SEAP reporter activity (RAW-Dual [3]; [4]): 0.194
- NF-kB SEAP reporter activity (RAW-Dual [3]; [5]): 0.0662
- NF-kB SEAP reporter activity (RAW-Dual [3]; [6]): 0.136

Structure (SMILES): O=C(CC1NCCCC1O)Cn1cnc2cc(Br)c(Cl)cc2c1=O (stereo not drawn)
- NF-kB SEAP reporter activity (RAW-Dual [2]; [9]): 0.144
- NF-kB SEAP reporter activity (RAW-Dual [2]; [10]): 0.256

Structure (SMILES): O=c1[nH]c2ccccc2n1C1CCN(Cc2ccc(-c3nc4cc5nc[nH]c5cc4nc3-c3ccccc3)cc2)CC1
- NF-kB SEAP reporter activity (RAW-Dual [2]; [7]): 0.45
- NF-kB SEAP reporter activity (RAW-Dual [2]; [8]): 1.05

Structure (SMILES): O=c1[nH]c2ccccc2n1C1CCN(Cc2ccc(-c3nc4cc5nc[nH]c5cc4nc3-c3ccccc3)cc2)CC1 (library stock concentration (final ~1000-fold dilution): 10 mM)
- NF-kB SEAP reporter activity (RAW-Dual [1]; agonist: LPS (TLR4) 0.1 ug/mL): 1.2
- NF-kB SEAP reporter activity (RAW-Dual [1]; [4]): 0.187
- NF-kB SEAP reporter activity (RAW-Dual [1]; [5]): 0.317
- NF-kB SEAP reporter activity (RAW-Dual [1]; [6]): 0.427

Structure (SMILES): CN(C)C(=O)Oc1cc(OC(=O)N(C)C)cc(C(O)CNC(C)(C)C)c1.Cl (stereo not drawn)
- NF-kB SEAP reporter activity (RAW-Dual [2]; [7]): 0.983
- NF-kB SEAP reporter activity (RAW-Dual [2]; [8]): 1.12

Structure (SMILES): CN(C)C(=O)Oc1cc(OC(=O)N(C)C)cc(C(O)CNC(C)(C)C)c1.Cl (stereo not drawn) (library stock concentration (final ~1000-fold dilution): 10 mM)
- NF-kB SEAP reporter activity (RAW-Dual [1]; agonist: LPS (TLR4) 0.1 ug/mL): 0.964
- NF-kB SEAP reporter activity (RAW-Dual [1]; [4]): 1.07
- NF-kB SEAP reporter activity (RAW-Dual [1]; [5]): 1.06
- NF-kB SEAP reporter activity (RAW-Dual [1]; [6]): 1.04

Structure (SMILES): C=C(C)C1Cc2c(ccc3c2OC2COc4cc(OC)c(OC)cc4C2C3=O)O1 (stereo not drawn) (library stock concentration (final ~1000-fold dilution): 10 mM)
- NF-kB SEAP reporter activity (RAW-Dual [1]; agonist: LPS (TLR4) 0.1 ug/mL): 3.13
- NF-kB SEAP reporter activity (RAW-Dual [1]; [4]): 2.36
- NF-kB SEAP reporter activity (RAW-Dual [1]; [5]): 1.27
- NF-kB SEAP reporter activity (RAW-Dual [1]; [6]): 1.45

Structure (SMILES): C=C(C)C1Cc2c(ccc3c2OC2COc4cc(OC)c(OC)cc4C2C3=O)O1 (stereo not drawn)
- NF-kB SEAP reporter activity (RAW-Dual [2]; [7]): 1.87
- NF-kB SEAP reporter activity (RAW-Dual [2]; [8]): 1.85

Structure (SMILES): CCN(CC)CCOC(=O)C(O)(c1ccccc1)c1ccccc1.Cl (library stock concentration (final ~1000-fold dilution): 10 mM)
- NF-kB SEAP reporter activity (RAW-Dual [1]; agonist: LPS (TLR4) 0.1 ug/mL): 1.2
- NF-kB SEAP reporter activity (RAW-Dual [1]; [4]): 0.872
- NF-kB SEAP reporter activity (RAW-Dual [1]; [5]): 1.14
- NF-kB SEAP reporter activity (RAW-Dual [1]; [6]): 1.07

Structure (SMILES): CCN(CC)CCOC(=O)C(O)(c1ccccc1)c1ccccc1.Cl
- NF-kB SEAP reporter activity (RAW-Dual [2]; [7]): 0.909
- NF-kB SEAP reporter activity (RAW-Dual [2]; [8]): 1.01

Structure (SMILES): Cn1c(CCCCCCC(=O)NO)nc2cc(N(CCCl)CCCl)ccc21
- NF-kB SEAP reporter activity (RAW-Dual [2]; [9]): 1.62
- NF-kB SEAP reporter activity (RAW-Dual [2]; [10]): 2.33

Structure (SMILES): Cn1c(CCCCCCC(=O)NO)nc2cc(N(CCCl)CCCl)ccc21 (library stock concentration (final ~1000-fold dilution): 10 mM)
- NF-kB SEAP reporter activity (RAW-Dual [3]; agonist: LPS (TLR4) 0.1 ug/mL): 3.35
- NF-kB SEAP reporter activity (RAW-Dual [3]; [4]): 1.5
- NF-kB SEAP reporter activity (RAW-Dual [3]; [5]): 1.55
- NF-kB SEAP reporter activity (RAW-Dual [3]; [6]): 1.91

Structure (SMILES): CCCCCc1cc(O)cc(O)c1 (library stock concentration (final ~1000-fold dilution): 10 mM)
- NF-kB SEAP reporter activity (RAW-Dual [1]; agonist: LPS (TLR4) 0.1 ug/mL): 1.11
- NF-kB SEAP reporter activity (RAW-Dual [1]; [4]): 0.427
- NF-kB SEAP reporter activity (RAW-Dual [1]; [5]): 0.966
- NF-kB SEAP reporter activity (RAW-Dual [1]; [6]): 0.739

Structure (SMILES): CCCCCc1cc(O)cc(O)c1
- NF-kB SEAP reporter activity (RAW-Dual [2]; [8]): 0.946

Structure (SMILES): COc1cc(C2c3cc4c(cc3C(O)C3COC(=O)C23)OCO4)cc(OC)c1O (stereo not drawn)
- NF-kB SEAP reporter activity (RAW-Dual [2]; [7]): 2.53
- NF-kB SEAP reporter activity (RAW-Dual [2]; [8]): 2.24

Structure (SMILES): COc1cc(C2c3cc4c(cc3C(O)C3COC(=O)C23)OCO4)cc(OC)c1O (stereo not drawn) (library stock concentration (final ~1000-fold dilution): 10 mM)
- NF-kB SEAP reporter activity (RAW-Dual [1]; agonist: LPS (TLR4) 0.1 ug/mL): 3.91
- NF-kB SEAP reporter activity (RAW-Dual [1]; [4]): 3.47
- NF-kB SEAP reporter activity (RAW-Dual [1]; [5]): 2.24
- NF-kB SEAP reporter activity (RAW-Dual [1]; [6]): 2.24

Structure (SMILES): C=C1C2CC3(C1O)C1CC4C5(C)CCC(O)C4(C1N(CC)C5)C3CC2=O (stereo not drawn)
- NF-kB SEAP reporter activity (RAW-Dual [2]; [7]): 0.914
- NF-kB SEAP reporter activity (RAW-Dual [2]; [8]): 0.994

Structure (SMILES): C=C1C2CC3(C1O)C1CC4C5(C)CCC(O)C4(C1N(CC)C5)C3CC2=O (stereo not drawn) (library stock concentration (final ~1000-fold dilution): 10 mM)
- NF-kB SEAP reporter activity (RAW-Dual [1]; agonist: LPS (TLR4) 0.1 ug/mL): 1.24
- NF-kB SEAP reporter activity (RAW-Dual [1]; [4]): 0.894
- NF-kB SEAP reporter activity (RAW-Dual [1]; [5]): 1.08
- NF-kB SEAP reporter activity (RAW-Dual [1]; [6]): 1.26

Structure (SMILES): Cl.Clc1ccc(C(OCCN2CCCCC2)c2ccccc2)cc1 (stereo not drawn) (library stock concentration (final ~1000-fold dilution): 10 mM)
- NF-kB SEAP reporter activity (RAW-Dual [3]; agonist: LPS (TLR4) 0.1 ug/mL): 0.653
- NF-kB SEAP reporter activity (RAW-Dual [3]; [4]): 1
- NF-kB SEAP reporter activity (RAW-Dual [3]; [5]): 0.512
- NF-kB SEAP reporter activity (RAW-Dual [3]; [6]): 0.52

Structure (SMILES): Cl.Clc1ccc(C(OCCN2CCCCC2)c2ccccc2)cc1 (stereo not drawn)
- NF-kB SEAP reporter activity (RAW-Dual [2]; [10]): 1.04
